The record followed here is PubChem BioAssay AID1745853 (National Center for Advancing Translational Sciences (NCATS), 2022).

Values joined by “and” are separate entries in the source; they are usually repeats but may differ in a detail not shown here. Equal entries are not always repeated. Some of the results follow. The main result of the screen is listed elsewhere. These columns were measured beside it and carry no call.

What all share (assay): Primary Screen for Target Class Profiling of Small Molecule Inhibitors of Methyltransferases
The target in test [1] is Glycine N-methyltransferase (Homo sapiens) (UniProt Q14749). Conditions: purified enzyme, MTase-Glo SAH luminescence; measured here: GNMT inhibition; at 40 µM; stronger effect = lower value. Summed up: (§1)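 Each enzyme was reacted with SAM and its substrate, with compounds tested once at 40 uM; SAH formed was read by MTase-Glo luminescence.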
Test [2] concerns the target Guanidinoacetate N-methyltransferase (Homo sapiens) (UniProt Q14353). The note with it: purified enzyme, MTase-Glo SAH luminescence; measured here: GAMT inhibition; at 40 µM; stronger effect = lower value. Summed up: as §1
Test [3] deals with Histamine N-methyltransferase (Homo sapiens) (UniProt P50135). The note with it: purified enzyme, MTase-Glo SAH luminescence; measured here: HNMT inhibition; at 40 µM; stronger effect = lower value. The method in brief:
as §1

The target in test [4] is Nicotinamide N-methyltransferase (Homo sapiens) (UniProt P40261). The note with it: purified enzyme, MTase-Glo SAH luminescence; measured here: NNMT inhibition; at 40 µM; stronger effect = lower value. The method in brief:
as §1

For test [5], the target named is Phenylethanolamine N-methyltransferase (Homo sapiens) (UniProt P11086). Conditions: purified enzyme, MTase-Glo SAH luminescence; measured here: PNMT inhibition; at 40 µM; stronger effect = lower value. The method in brief: as §1
On the % scale 0 is the no-effect control and ±100 the full control effect.

Take `CC1=C(C(=O)Nc2cc(Cl)ccc2Cl)C(c2ccco2)C2=C(CCCC2=O)N1` (centres undefined): the activity change, negative = inhibition in test [1] is -12.9%; in test [2], -0.985%; in test [3], 7.09%; in test [4], -20.7%; in test [5], -0.542%.

Turning to `Cc1ccc(NC(=O)Cn2nc3n(CCc4ccccc4)c(=O)c4ccccc4n3c2=O)cc1C`, the activity change, negative = inhibition in test [1] came to 2.64%; in test [2], 3.02%; in test [3], 4.06%; in test [4], 0.008%; in test [5], 0.337%.

As for `NS(=O)(=O)c1cc2c(cc1Cl)NC=NS2(=O)=O`, the activity change, negative = inhibition is 7.02% in test [1]; 11.9% in test [2]; 9.49% in test [3]; -5.55% in test [4]; 3.01% in test [5].

Turning to `COc1ccc(CCN2C(=O)c3nc4ccccc4n3CC2(C)C(=O)NC2CCCC2)cc1OC` (centres undefined), the activity change, negative = inhibition in test [1] was 0.45%; in test [2] it was 0.359%; in test [3], -2.67%; in test [4], -15.4%; in test [5], -1.89%.

On to `Cn1c(=O)c2[nH]c(-c3ccccc3)nc2n(C)c1=O`, for which the activity change, negative = inhibition in test [1] is 4.29%; in test [2] it was 13%; in test [3], 4.52%; in test [4], -0.597%; in test [5], 11.6%.

As for `CCCN1C(=O)c2c(C(=O)NCc3ccc(OC)c(OCC)c3)ncn2CC1(C)C(=O)NC1CCCC1` (centres undefined), the activity change, negative = inhibition in test [1] was -3.78%; in test [2], 0%; in test [3], -5.62%; in test [4], -8.93%; in test [5] it was 0.551%.

Consider `S=c1ssc2c1CCC2`, for which the results for the activity change, negative = inhibition in test [2], in test [4] and in test [5] were -3.2%, -70.5% and -62.2%, respectively.

Take `O=c1c2ccccc2n2c(=O)n(Cc3ccccc3Cl)nc2n1Cc1ccccc1`: the activity change, negative = inhibition was -2.17% in test [1]; 3.74% in test [2]; 6.92% in test [3]; -2.04% in test [4]; -2.16% in test [5].

`COC(=O)C1=CO[C@@H](O[C@@H]2O[C@H](CO)[C@@H](O)[C@H](O)[C@H]2O)[C@@H]2C(CO)=CC[C@H]12`: the activity change, negative = inhibition in test [1] is -2.38%; in test [2] it was -6.09%; in test [3] it was 0.931%; in test [4], -15.2%; in test [5] it was 0.287%.

As to `COc1ccc([C@H](Cc2ccncc2)c2ccccc2)cc1OC1CCCC1`, the activity change, negative = inhibition was -1.84% in test [1]; 2.92% in test [2]; 4.33% in test [3]; -19.9% in test [4]; -5.01% in test [5].

`O=C(/C=C/c1ccccc1)OC[C@]12O[C@H]1[C@@H](O)[C@@H]1C=CO[C@@H](O[C@@H]3O[C@H](CO)[C@@H](O)[C@H](O)[C@H]3O)[C@@H]12`: the activity change, negative = inhibition was -3.39% in test [1]; 1.56% in test [2]; 5.96% in test [3]; -9.95% in test [4]; 7.39% in test [5].

For the compound `C=CC1(C)CC2=CCC3C(C)(C(=O)O)CCCC3(C)C2CC1OC(C)=O` (centres undefined), the activity change, negative = inhibition in test [1] is 0%; in test [2], 6.54%; in test [3], 10.9%; in test [4], -9.91%; in test [5] it was -1.66%.

For `N#Cc1ccc(C2CCCc3cncn32)cc1` (centres undefined), the activity change, negative = inhibition in test [1] is 1%; in test [2], -4.38%; in test [3], -8.44%; in test [4] it was -9.23%; in test [5] it was 4.55%.

Consider `Cc1ccc(C(=O)N(Cc2ccco2)S(=O)(=O)c2ccc3c(c2)n(C)c(=O)n3C)cc1`, for which the activity change, negative = inhibition is -2.1% in test [1]; 3.65% in test [2]; -17.8% in test [3]; -4.93% in test [4]; -2.05% in test [5].

As for `Cn1cc(C(=O)Cc2ccccc2)cc1/C=C/C(=O)NO`, the activity change, negative = inhibition in test [2] is 10.1%; in test [4], -6.69%; in test [5], 4.31%.

As to `CN(CC[C@@H](Oc1ccc(C(F)(F)F)cc1)c1ccccc1)CC(=O)O`, the activity change, negative = inhibition in test [1] is -0.461%; in test [2], 10.1%; in test [3], 7.56%; in test [4], -12.7%; in test [5] it was -1.82%.

Consider `CC(=O)Nc1c2n(c3ccc(F)cc13)CC(C)(C(=O)NC1CCCC1)N(Cc1ccc(C)cc1)C2=O` (centres undefined), for which the activity change, negative = inhibition in test [1] was -19.9%; in test [2] it was 1.97%; in test [3] it was -4.86%; in test [4], -8.03%; in test [5], -5.34%.

Consider `CC(C)OCCCNC(=O)C1(C)Cn2c(cc3ccccc32)C(=O)N1Cc1ccc(Cl)cc1` (centres undefined), for which the activity change, negative = inhibition was 2.21% in test [1]; 5.61% in test [2]; -1.01% in test [3]; 0.342% in test [4]; -0.7% in test [5].

For the compound `Cn1cnnc1-c1nn(C)c2c1CNCC2`, the activity change, negative = inhibition in test [1] is -0.253%; in test [2] it was -0.849%; in test [3], 2.2%; in test [4], -0.378%; in test [5], -0.634%.

For the compound `CC1(C(=O)NC2CCCCC2)Cn2c(cc3sccc32)C(=O)N1CCCc1ccccc1` (centres undefined), the activity change, negative = inhibition in test [1] was -4.04%; in test [2], 3.61%; in test [3], -1.17%; in test [4] it was 2.69%; in test [5] it was 0.656%.

On to `Cc1cccc(CN2C(=O)c3cc4ccccc4n3CC2(C)C(=O)NCc2ccccc2)c1` (centres undefined), for which the activity change, negative = inhibition was 1.89% in test [1]; 0% in test [2]; 0.864% in test [3]; -1.16% in test [4]; -3.36% in test [5].

`COCCCN1C(=O)c2cc3occc3n2CC1(C)C(=O)NC1CCCCCCC1` (centres undefined): the activity change, negative = inhibition in test [1] is 2.38%; in test [2], 4.91%; in test [3] it was 6.84%; in test [4] it was -0.441%; in test [5] it was 2.13%.

Regarding `CCCn1c(=O)c2ccc(Cl)cc2n2c(=O)n(Cc3cccc(Cl)c3)nc12`, the activity change, negative = inhibition in test [1] is -2.64%; in test [2], 0.224%; in test [3], 4.81%; in test [4], -0.599%; in test [5] it was 1.2%.

Take `Cc1onc(-c2ccccc2Cl)c1C(=O)N[C@@H]1C(=O)N2[C@@H]1SC(C)(C)[C@@H]2C(=O)O`: the activity change, negative = inhibition in test [1] is 7.08% and 2.69%; in test [2] it was 5.99% and 5.33%; in test [3] it was 6.62% and -0.629%; in test [4] it was -5.91% and -15.4%; in test [5] it was 6.47% and -4.85%.

Take `Cc1ccc(Cn2c(=O)c3ccccc3n3c(=O)n(CC(=O)c4ccc(C)cc4)nc23)cc1`: the activity change, negative = inhibition in test [1] came out at 2.38%; in test [2], 1.09%; in test [3] it was 5.72%; in test [4] it was 1.56%; in test [5], 3.27%.

As to `O=C(NC1CCCCC1)C1c2cccn2-c2sc3c(c2C(=O)N1c1ccc(Cl)cc1)CCCC3` (centres undefined), the activity change, negative = inhibition in test [1] was -4.14%; in test [2], 0%; in test [3] it was 1.29%; in test [4], -0.46%; in test [5], -2.23%.

Consider `COc1ccccc1Nc1nc(-c2sc(NC(C)=O)nc2C)cs1`, for which the values for the activity change, negative = inhibition in test [2], in test [4] and in test [5] were 0.057%, -10.8% and -5.97%, respectively.

Take `COCCNC(=O)[C@@H]1C[C@@H](O)CN1C1CCN(C(=O)Cc2ccccc2)CC1`: the activity change, negative = inhibition was -1.63% in test [1]; 0.392% in test [2]; 0.035% in test [3]; -2.45% in test [4]; -1.94% in test [5].

For `O=C(NCCc1ccccc1)c1ccc2c(c1)n(Cc1cccc(F)c1)c(=O)c1ccnn12`, the activity change, negative = inhibition is -2.97% in test [1]; 4.72% in test [2]; -0.261% in test [3]; -6.14% in test [4]; 0.013% in test [5].

Consider `COc1ccc(CC2C(=O)NC(C)C(=O)N(C)C3Cc4ccc(cc4)Oc4cc(ccc4OC4OC(CO)C(O)C(O)C4O)CC(C(=O)NC(C)C(=O)NC(C)C(=O)N2C)N(C)C3=O)cc1` (centres undefined), for which the activity change, negative = inhibition was -3.46% in test [1]; -0.654% in test [2]; 5.04% in test [3]; -13.8% in test [4]; -7.21% in test [5].

Consider `COc1ccc(NC(=O)CCc2nnc3n(Cc4ccccc4Cl)c(=O)c4ccccc4n23)cc1OC`, for which the activity change, negative = inhibition in test [1] was -1.94%; in test [2], -1.77%; in test [3], -10.3%; in test [4], -5.41%; in test [5], -12.3%.
